In PubChem BioAssay AID1468 (National Center for Advancing Translational Sciences (NCATS), 2008):
“And” between values parts separate entries of the source, which are not always exact repeats. Equal entries are not always repeated. Screen size: about 280,000 compounds; about 1,100 (0.39%) were called active. Inconclusive results, whose numbers are uncertain, are shown with a selection of clear calls. Calls come from the whole dose curve; as a rule, active = well fitted inhibition curve with a large enough effect; inconclusive = small, poorly fitted or top-dose-only effect, or effect the other way; inactive = flat fitted curve, though single readings scatter. Where the call is inconclusive, the potency comes from a doubtful curve fit.

Biological target: Microtubule-associated protein tau (Homo sapiens) (UniProt P10636)
Assay: qHTS for Inhibitors of Tau Fibril Formation, Fluorescence Polarization; note: nearly all actives have a fitted effect of over 55% in size
Settings: K18 P301L tau heparin fibrillization, Alexa594 FP, 6 h; series mostly up to 57.7 µM
Outline: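 Human K18 P301L fragment (15 uM unlabeled plus 0.24 uM Alexa 594-labeled) in 100 mM sodium acetate pH 7 with compound, aggregation induced by 20 uM heparin for 6 hr at 37 C. ThT (30 uM) added for 1 hr, then Alexa 594 FP read.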
Potency is the fitted concentration of half-maximal effect; tags give direction and shape of the fitted curve.

UniProt P10636, sequence (P10636 whole entry, looked up): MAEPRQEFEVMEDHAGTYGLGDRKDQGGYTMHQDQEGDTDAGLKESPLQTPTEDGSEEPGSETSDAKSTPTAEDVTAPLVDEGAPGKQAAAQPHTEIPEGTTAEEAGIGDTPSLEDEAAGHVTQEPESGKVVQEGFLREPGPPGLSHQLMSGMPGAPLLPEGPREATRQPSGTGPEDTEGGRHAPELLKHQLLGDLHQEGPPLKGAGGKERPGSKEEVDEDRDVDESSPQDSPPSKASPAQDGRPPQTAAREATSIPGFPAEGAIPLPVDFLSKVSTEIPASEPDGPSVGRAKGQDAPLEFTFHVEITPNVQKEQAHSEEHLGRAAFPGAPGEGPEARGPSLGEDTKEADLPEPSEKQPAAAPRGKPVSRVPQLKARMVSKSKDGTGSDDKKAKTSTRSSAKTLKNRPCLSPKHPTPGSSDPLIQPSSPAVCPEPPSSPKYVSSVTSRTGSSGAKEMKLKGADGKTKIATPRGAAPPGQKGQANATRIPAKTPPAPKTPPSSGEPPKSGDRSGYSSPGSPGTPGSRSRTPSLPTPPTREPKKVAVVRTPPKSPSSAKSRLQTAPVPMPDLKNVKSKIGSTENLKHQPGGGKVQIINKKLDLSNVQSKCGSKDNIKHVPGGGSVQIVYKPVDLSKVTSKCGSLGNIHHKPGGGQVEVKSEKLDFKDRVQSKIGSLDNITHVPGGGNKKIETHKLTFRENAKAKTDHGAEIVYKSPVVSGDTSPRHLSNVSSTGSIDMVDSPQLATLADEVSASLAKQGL

Potency, inconclusive:
COC(=O)CCC(=O)OC1(C)C(=O)C=C2C=C3CCCN3C=C2C1=O (configuration not stated) 12.6 µM [inhibitor, partial curve], O=C(Nc1ccon1)c1cnc2sccn2c1=O 15.8 µM [inhibitor, partial curve, poor fit], CCOC(=O)c1c(NC(=O)Cc2cccs2)sc2c1CCCC2 8.91 µM [inhibitor, partial curve], S=C(NNc1cccc(Cl)c1)NC1CCCCC1 15.8 µM [inhibitor, partial curve], O=C(CSCc1c(F)cccc1Cl)NCc1ccco1 39.8 µM [inhibitor, single point], COc1ccc(CNC(=O)CSc2nc(-c3ccc(OC)cc3)cc(C(F)(F)F)n2)cc1 22.4 µM [inhibitor, single point], Cc1cccc(C)c1NS(=O)(=O)c1ccc(NC(=O)c2ccc(Cl)c([N+](=O)[O-])c2)cc1 28.2 µM [inhibitor, partial curve], COc1cccc(C(CC(=O)Nc2cccc3ccccc23)NC(=O)c2ccccc2)c1 (configuration not stated) 3.16 µM [inhibitor, single point], COc1ccc(CNC(=O)c2cc(-c3ccc(OC)cc3)on2)cc1 39.8 µM [inhibitor, single point], Cc1ccc(S(=O)(=O)N(CC(O)Cn2c3ccccc3c3ccccc32)c2cccc(C(N)=O)c2)cc1 (configuration not stated) 7.94 µM [inhibitor, partial curve, poor fit], O=[N+]([O-])c1ccc(Cl)c2c1C1C=CCC1C(c1ccccn1)N2 (configuration not stated) 39.8 µM [inhibitor, single point], Cc1[nH]nc2c1C(c1ccccn1)N(c1ccc(Br)cc1)C2=O (configuration not stated) 44.7 µM [inhibitor, single point], COc1ccc(-c2cc(C(=O)Nc3nc4ccccc4s3)c3ccccc3n2)cc1OC 31.6 µM [inhibitor, partial curve, poor fit], Cc1cc(C)c(NC(=O)Cn2c(=O)n(CC(=O)NCc3ccccc3Cl)c(=O)c3sccc32)c(C)c1 39.8 µM [inhibitor, single point], CCCCCCCC(=O)N/N=C(\C)c1ccc(N)cc1 44.7 µM [activator, single point], O=C(CSc1nc2ccccc2nc1Cc1ccccc1)NCc1ccccc1Cl 22.4 µM [inhibitor, partial curve], CC(=O)NCCc1nc2ccccc2n1Cc1cccc(C)c1 8.91 µM [activator, single point], CC(C)=NNc1nc(-c2ccc(N3C(=O)CCC3=O)cc2)cs1 12.6 µM [inhibitor, partial curve], CCCCCCCCCC(=O)N[C@H](CN1CCOCC1)[C@H](O)c1ccccc1 56.2 nM [inhibitor, single point] and 10 µM [inhibitor, partial curve, poor fit], CC(=O)c1ccc(NC(=S)Nc2ccc3cn[nH]c3c2)cc1 15.8 µM [inhibitor, partial curve], CC(C)c1ccc(S(=O)(=O)/N=C2/C=CC(=O)c3ccccc32)cc1 31.6 µM [inhibitor, single point], CCc1ccc(NC(=O)c2ccc3[nH]c(C)c(C)c3c2)cc1 20 µM [activator, single point], CCOc1ccc(N2C(=O)C(Cl)=C(Nc3ccccc3O)C2=O)cc1 5.62 µM [inhibitor, partial curve], Cc1ccc2[nH]c(O)c(N=NC(=O)CCc3ccccc3)c2c1Br 11.2 µM [inhibitor, partial curve, poor fit], Cc1ccc(NC(=O)CSc2nnc(-c3ccco3)c(-c3ccco3)n2)cc1 12.6 µM [inhibitor, partial curve], CCOC(=O)Cn1c(=O)n(-c2ccccc2OC)c2nc(-c3cccc(F)c3)nc(C(N)=O)c21 22.4 µM [inhibitor, single point], O=C(N/N=C/c1ccccc1Br)C1CC1 3.98 µM [inhibitor, single point], Cc1ccc2c(c1)-c1c(cnc3cc(-c4ccccc4)nn13)CO2 39.8 µM [inhibitor, single point], CCCCc1ccc(NC(=O)c2ccc(=O)n(Cc3cccc(C)c3)c2)cc1 14.1 µM [inhibitor, partial curve, poor fit], CCSc1ccc2nnc(-c3cccc(F)c3)n2n1 39.8 µM [inhibitor, single point], CCOc1ccc(NC(=O)Cn2nnc(-c3ccccc3NC(=O)c3cccs3)n2)cc1 10 µM [inhibitor, partial curve], Cc1c(-c2ccc(O)cc2)nn(-c2ccc(O)cc2)c1-c1ccc(OCCN2CCCCC2)cc1 2.51 µM [activator, partial curve, poor fit], CCCC[n+]1ccn(C2=C([O-])c3ccccc3C(=O)/C2=N\S(=O)(=O)c2ccc(Cl)cc2)c1 2.82 µM [inhibitor, partial curve, poor fit], COc1ccc(/C=N/NC(=O)c2ccc(Br)cc2)c(OC)c1 0.0501 µM [inhibitor, single point], CCOc1ccc2[nH]c(=O)c(CN(Cc3nnnn3Cc3ccco3)C3CCCCC3)cc2c1 31.6 µM [inhibitor, single point], COc1cccc(Nc2ncccc2C(=O)Nc2ccccc2)c1 39.8 µM [inhibitor, single point], N#Cc1c(N)nc(N2CCCC2)c(C#N)c1-c1ccc(Cl)cc1 44.7 µM [inhibitor, single point], CCOc1ccccc1NC(=O)Cn1cnc2c(cnn2-c2ccc(C)c(C)c2)c1=O 15.8 µM [inhibitor, partial curve], Cc1nn(-c2ccccc2)c2c1N(CC(=O)N1CCN(c3cccc(Cl)c3)CC1)C(=O)CS2 20 µM [inhibitor, single point], O=C(CSc1ccc([N+](=O)[O-])cn1)Nc1ccc(N2CCOCC2)c(Cl)c1 10 µM [activator, partial curve], O=C(O)C(=O)Cc1c[nH]c2ccccc12 39.8 µM [inhibitor, single point], N=C1/C(=C\c2coc3ccccc3c2=O)C(=O)N=C2SC(c3ccncc3)=NN12 20 µM [inhibitor, single point], O=c1[nH]cc(N2CCCCCC2)c(=O)[nH]1 39.8 µM [inhibitor, single point], Fc1ccc(Nc2nc(NCc3ccco3)c3ccccc3n2)cc1 1.58 µM [inhibitor, partial curve, poor fit], CCCCN(C)CCCNC(=O)c1cc(-c2ccc(Br)s2)nc2ccccc12 35.5 µM [inhibitor, partial curve], COC(CNC(=O)c1ccc2c3c(onc13)-c1ccccc1C2=O)OC 25.1 µM [inhibitor, single point], COc1cccc(Nc2sc(C(=O)c3ccc(F)cc3)c(N)c2C(=O)NCc2ccc(Cl)cc2)c1 31.6 µM [inhibitor, single point]

Potency, inactive:
CCOC(=O)c1ccccc1NC(=O)CSc1nc2cn(CC)nc2c(=O)n1Cc1ccc(Cl)cc1, NCCNc1ccc([N+](=O)[O-])c(Sc2nc3ccccc3[nH]2)c1, COc1ccccc1C(=O)NNC(=O)c1sccc1-n1cccc1, Cc1ccc(CCNC(=O)CCCn2nc(C)c3c(C)n(-c4ccccc4)nc3c2=O)cc1, O=[N+]([O-])c1cc(/C=N/n2c(-c3cccnc3)n[nH]c2=S)ccc1Cl, CS(=O)(=O)c1ccc(Sc2nc3ccccc3[nH]2)c([N+](=O)[O-])c1, O=C(O)c1cc(-c2ccccc2)n[nH]1, c1ccc(-c2n[nH]c3ccccc23)cc1, O=C(NCc1ccco1)c1cnc2ccccn2c1=O, CC1(C(=O)Nc2nnc(SCc3ccccc3)s2)Cc2ccccc2C(=O)O1 (configuration not stated), COc1ccc(N2C(=O)C(Cl)=C(Nc3c(C)n(C)n(-c4ccccc4)c3=O)C2=O)cc1, C=CCn1c(Cc2cccs2)nnc1SCC(=O)c1cccc(Br)c1, CCC(=O)NC1(Cc2ccc(O)cc2)CCCCC1, CCc1ccccc1NC(=O)N(C)CCc1c(C)nn(C)c1C, Cc1ccc(C)c(Cn2cc(S(=O)(=O)c3ccc(Cl)cc3)c(=O)c3cc(F)ccc32)c1, O=C(Nc1sc2c(c1C(=O)NCc1ccco1)CCCC2)c1ccc2c(c1)OCO2, CC/C=C\C/C=C\C/C=C\CCCCCCCCCCCC(=O)O, CCOC(=O)C1CCN(C(=O)Cn2c(=O)oc3cc(S(=O)(=O)N4CCC(C)CC4)ccc32)CC1, CCOC(=O)c1cccnc1SCC(=O)Nc1ccc(C)cc1C, Oc1ccc(N=Nc2ccc3c(c2)OCCO3)c(O)c1
